According to the supplement of paper PMC10126150:
Values marked as one replicate rest on one cluster of the flow cell; about a third of the high ones do not repeat.

System: ATP
Assay: switch fluorescence ratio, 500 uM ATP over buffer (Cy3 cluster intensity, sum of 5 cycles each) (fold (ratio)); higher = stronger signal-on switching upon ATP binding; sequences stand for … in TCGTCGGCAGCGTCAGATGTGTATAAGAGACAGTTTTTTTTTTTTTTTTTTTTTTTTT…TC
Details: aptamer strand: ATP DNA aptamer (quencher-CACCTGGGGGAGTATTGCGGAGGAAGG + anchor), 100 nM annealed; ATP concentration: 500 uM; one replicate
Summary of the method: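 The fluorescence ratio divides summed target-cycle Cy3 intensity by summed buffer-cycle Cy3 intensity for each cluster and is averaged per switch-domain sequence. Cy3-labelled switching-strand clusters on a modified Illumina MiSeq flow-cell were annealed to 100 nM quencher-labelled ATP aptamer, then imaged in selection buffer and again after 15 min with 500 uM ATP at 22 °C. Five such cycles were run, with NaOH stripping and re-annealing between them, and clusters outside 100-1000 RFU were excluded.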
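Further: ATP exposure 15 min at 22 °C before imaging.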

TAAAGACCTA
switch fluorescence ratio: 1.05

TTTGAGTTTC
switch fluorescence ratio: 1.02

AGGGGTGAAG
switch fluorescence ratio: 1.01

GTTTGTTA
switch fluorescence ratio: 1.02

TATCGGTTCC
switch fluorescence ratio: 1.03

ATCAGTAAGT
switch fluorescence ratio: 1.02

GTTCACCGTC
switch fluorescence ratio: 0.965

GAGTCTATGA
switch fluorescence ratio: 1.01

TTTAGAACTA
switch fluorescence ratio: 0.953

TCCTACGTCG
switch fluorescence ratio: 1.62

TCGTTTGTAC
switch fluorescence ratio: 1.18

TTGCGCGCTT
switch fluorescence ratio: 0.971

AGAAGCGTAA
switch fluorescence ratio: 0.998

AGTGGCATTG
switch fluorescence ratio: 0.992

ATGGGCGATC
switch fluorescence ratio: 1.03

CCCCGGATG
switch fluorescence ratio: 1.85

AGACATTTTA
switch fluorescence ratio: 0.984

AGCGAACTTC
switch fluorescence ratio: 1.04

CTCATACGTA
switch fluorescence ratio: 1.1

CGTCGTGAAG
switch fluorescence ratio: 0.974

TAACCCCTT
switch fluorescence ratio: 1.07

TCTCGTAAAG
switch fluorescence ratio: 1.01

CCACTACCT
switch fluorescence ratio: 1.38

TTATTTTGGA
switch fluorescence ratio: 0.966

ACGGGGCCGA
switch fluorescence ratio: 1

CTCGCTACTG
switch fluorescence ratio: 1.5

CGTTGGGGCC
switch fluorescence ratio: 1.03

CATTGTACTG
switch fluorescence ratio: 1.03

TACCTTTCGC
switch fluorescence ratio: 1.51

AAAATCAACC
switch fluorescence ratio: 1.06

GGGGTTCTAA
switch fluorescence ratio: 1

ATAGCGAGTG
switch fluorescence ratio: 0.986

TATGGCTATC
switch fluorescence ratio: 1.02

TATCCAATTG
switch fluorescence ratio: 1.01

AGACTTGAGA
switch fluorescence ratio: 1

ATCGTGATCG
switch fluorescence ratio: 1.09

GTGCTTTGAT
switch fluorescence ratio: 1.07

TTTGAGGCAA
switch fluorescence ratio: 3.6

GACTTACGTC
switch fluorescence ratio: 1.12

TATATGCCT
switch fluorescence ratio: 0.961

TAGGCCTGCC
switch fluorescence ratio: 1.01

TGCGCTTTCC
switch fluorescence ratio: 1.41

CGAATATCAG
switch fluorescence ratio: 0.979

TTCAGAATCG
switch fluorescence ratio: 1.04

CCACTAAATT
switch fluorescence ratio: 1.06

GCATACTGG
switch fluorescence ratio: 1.09

ATAGGTCAC
switch fluorescence ratio: 1.02

TAGACCA
switch fluorescence ratio: 0.997

CTGTTATTTG
switch fluorescence ratio: 0.972

TGCTTGCTGC
switch fluorescence ratio: 1.06

TAAGATCTAA
switch fluorescence ratio: 0.973

CCCCAAAATT
switch fluorescence ratio: 1.06

CGAGGTAGGT
switch fluorescence ratio: 0.975

ACGTAAGTGG
switch fluorescence ratio: 1.08

TATCATCATT
switch fluorescence ratio: 1.01

AGACCTCCT
switch fluorescence ratio: 1.22

CTCATTCGAT
switch fluorescence ratio: 1.04

AGCGCCCATG
switch fluorescence ratio: 1.01

GGCGTCGGA
switch fluorescence ratio: 0.939

GGTGTAATTA
switch fluorescence ratio: 0.986

CCAACGTGAG
switch fluorescence ratio: 1.08

CTTATGGGGA
switch fluorescence ratio: 1

TCCGCTCATA
switch fluorescence ratio: 4.55

TTATCTCAGA
switch fluorescence ratio: 1.03

CAAATAATCT
switch fluorescence ratio: 0.985

GCTCGGCGTG
switch fluorescence ratio: 1.04

GTCTCAGGGG
switch fluorescence ratio: 1.11

CTTAGGTACA
switch fluorescence ratio: 1.03

TACGAGCCGG
switch fluorescence ratio: 1.02

ACGAGGTTCG
switch fluorescence ratio: 0.984

CTATGACTAG
switch fluorescence ratio: 0.973

TACCAACATA
switch fluorescence ratio: 1.06

TGGGACCTTT
switch fluorescence ratio: 1.02

TAGGTCATCC
switch fluorescence ratio: 0.983

GTACTCTCCC
switch fluorescence ratio: 1.48

TAAAACTATA
switch fluorescence ratio: 1.06

ACTAATGATA
switch fluorescence ratio: 1.05

AGGAGTAAGT
switch fluorescence ratio: 0.942

CCGGTAACCC
switch fluorescence ratio: 1.1

GACAGCAGCA
switch fluorescence ratio: 1.17

TAACGGGGT
switch fluorescence ratio: 0.98

GGCGTACGTG
switch fluorescence ratio: 1.04

GGTGGCATCA
switch fluorescence ratio: 0.962

CAGGGCTTTG
switch fluorescence ratio: 0.981

TCATAACAGT
switch fluorescence ratio: 0.994
